Source: the antibiotic and cytotoxicity screens of Wong et al. (2023)
This is one part of the list.

system: S. aureus RN4220; test: growth inhibition call (relative growth <= 0.2); conditions: 50 µM

Growth inhibition call, inactive:
CN(C)CCN1C[C@H]2OCCN(Cc3cnn(C)c3)[C@H]2C1, C[C@@H]1CN([C@@H](C)CO)C(=O)Cc2cc(NC(=O)Nc3ccccc3)ccc2O[C@H]1CN(C)S(=O)(=O)c1cn(C)cn1, CC(C)NC(=O)N(C)C[C@@H]1Oc2ccc(NS(=O)(=O)c3ccc(F)cc3)cc2CC(=O)N([C@@H](C)CO)C[C@@H]1C, CC(C)NC(=O)N(C)C[C@@H]1Oc2ccc(NS(=O)(=O)c3ccc(F)cc3)cc2C(=O)N([C@H](C)CO)C[C@@H]1C, C[C@@H]1CN([C@@H](C)CO)C(=O)c2cc(NC(=O)Nc3cccc4ccccc34)ccc2O[C@@H](C)CCCCO[C@H]1CN(C)C(=O)Cc1ccccc1, Cn1cnc(S(=O)(=O)N2C[C@@H](O)COC[C@@H]3O[C@H](CC(=O)N4CCN(c5ccccc5)CC4)CC[C@H]32)c1, OC[C@H]1O[C@@](CO)(O[C@@H]2O[C@H](CO)[C@@H](O)[C@H](O)[C@H]2O)[C@@H](O[C@@H]2O[C@H](CO)[C@@H](O)[C@H](O)[C@H]2O)[C@@H]1O, CC(=O)N(C)[C@H]1C(=O)C(=O)c2ccccc2C1=O
